Values joined by “and” are separate entries in the source; they are usually repeats but may differ in a detail not shown here. Equal values may be shown once.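 These data come from cells grown in 96-well plates and exposed to compound for 48 hours at five concentrations. The concentration for 50% growth inhibition is given as GI50.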 Active and inactive are the calls of the source. No stated cut-off is given here; in the data, active = GI50 up to about 1.1 µM and inactive = higher.
What follows are compounds tested on NCI-H322M (assay: inhibition of tumour cell growth, NCI panel, 48 h).
`CC(=O)Nc1ccc2c(c1)/C(=N/c1ccc(C(=O)O)cc1)c1ccccc1-2` was tested, and the GI50 was inactive: 69.8 µM.
`CCOC(=O)c1c(NC(=O)c2ccc(Br)cc2)sc2c1CCCC2` was tested, and the GI50 was inactive: > 100 µM.
In the case of `c1ccc(CN2CCC(CNc3ncnc4ccccc34)C2)cc1` (stereo not drawn), the GI50 is reported as inactive: 95.5 µM.
In the case of `COc1ccc(-c2[nH]c(=O)n(C3OC(CO)C(O)C(O)C3O)c(=O)c2C#N)cc1` (stereo not drawn), the GI50 is reported as inactive: > 100 µM.
In the case of `NNC(=O)CC(=O)Nc1ccccc1F`, the GI50 is reported as inactive: > 100 µM.
With `O=C1CCC2(CC1)SCCCS2` the GI50 was inactive: > 100 µM.
`Cn1cnc(C(N)=[Se])c1N` was tested, and the GI50 was active: 0.344 µM.
For `COc1cc(/C=C2\C(=O)N(C(=O)c3ccc(NC(C)=O)cc3)N=C2C)ccc1O`, the GI50 was inactive: > 100 µM.
`COC(=O)C1=CC2OC1(C)C1(CC1)C2=O` (stereo not drawn) was tested, and the GI50 was inactive: 34.6 µM.
`Cc1nsc2cc(Cl)n(C)c(=O)c12` was tested, and the GI50 was inactive: > 100 µM.
`O=[N+]([O-])c1cccc(C(O)/C(=N/O)c2nc3ccc(Cl)cc3nc2O)c1` (stereo not drawn) was tested, and the GI50 was inactive: > 100 µM.
In the case of `CCN(CC)CC1CCCCN1CC(=O)N1CC(C)C(=O)Nc2ccccc21` (stereo not drawn), the GI50 is reported as inactive: > 100 µM.
In the case of `BrC(Br)=C1C(=C(Br)Br)C(Br)C1Br` (stereo not drawn), the GI50 is reported as inactive: 2.07 µM.
For `CCc1ccc(Nc2cc(=O)[nH]c(SCc3ccccc3)n2)cc1`, the GI50 was inactive: > 100 µM.
In the case of `O=[N+]([O-])c1ccc(-c2csc3nc(-c4ccccc4)nn23)cc1`, the GI50 is reported as inactive: > 100 µM.
For `Cc1cn(C2C=CC(COP(=O)(OCC3=CC(=O)c4ccccc4C3=O)N(C)CCCCCl)O2)c(=O)[nH]c1=O` (stereo not drawn), the GI50 was inactive: 7.52 µM.
For `COc1ccc(C2C(C(=O)O)=C(CO)Oc3cc4c(cc32)OCO4)c(OC)c1` (stereo not drawn), the GI50 was inactive: > 100 µM.
For `Cc1cn(C2CCC(/C=N\O)O2)c(=O)[nH]c1=O` (stereo not drawn), the GI50 was inactive: > 100 µM.
`CC1(C)CCc2cc3c(-c4ccccc4)cc(=O)oc3cc2O1` was tested, and the GI50 was inactive: > 100 µM.
For `COc1ccc(/C=C(/C#N)C(N)=O)cc1OC`, the GI50 was inactive: > 100 µM.
`O=C(CN1CCN(C(=O)OCc2ccccc2)CCN(CC(=O)N2CCCCC2)CCN(C(=O)OCc2ccccc2)CC1)N1CCCCC1` was tested, and the GI50 was inactive: 21.1 µM.
With `O=C1C=Cc2c(-c3ccccc3)oc3cccc1c23` the GI50 was inactive: 31.8 µM.
`Nc1nc(N)c(C2=CCNCC2)c(=O)[nH]1` was tested, and the GI50 was inactive: > 100 µM.
With `CN1C/C(=C\c2ccccc2)C2=NN(C(N)=S)[C@H](c3ccccc3)[C@@H]2C1` the GI50 was inactive: > 100 µM.
`CCOC(=O)NC(Nc1ccc(F)c(F)c1)(C(=O)OCC)C(F)(F)F` (stereo not drawn) was tested, and the GI50 was inactive: > 100 µM.
With `C=C(C)C1Cc2cc(C(C)=O)ccc2O1` (stereo not drawn) the GI50 was inactive: > 100 µM.
In the case of `CCc1ccccc1NNc1cc(=O)[nH]c(=O)[nH]1`, the GI50 is reported as inactive: 22.8 µM.
For `COC(=O)c1c(O)ccc2c1c1cc3ccccc3c(O)c1n2CCc1ccc(OC)c(OC)c1`, the GI50 was inactive: > 100 µM.
`O=C1c2sccc2C(=O)c2c(CO)csc21` was tested, and the GI50 was inactive: 6.44 µM.
For `COc1cc(S(=O)(=O)Nc2nc(-c3ccc(N4C(=O)/C(=C/c5ccccc5)N=C4c4ccccc4)cc3)cs2)ccc1Cl`, the GI50 was inactive: 60.5 µM.
With `CSc1nc2c(c(O)c(C)c(=O)n2C2OC(COC(C)=O)C(OC(C)=O)C(OC(C)=O)C2OC(C)=O)c(=O)n1C` (stereo not drawn) the GI50 was inactive: > 100 µM.
With `N#Cc1nc2cc(Cl)ccc2nc1N1CCN(c2ccc([N+](=O)[O-])cc2)CC1` the GI50 was inactive: > 100 µM.
For `CCn1cnc2c(NC(C)=O)ncnc21`, the GI50 was inactive: > 100 µM.
`CN(C)CCn1cnc2ncccc2c1=O` was tested, and the GI50 was inactive: > 100 µM.
For `S=c1c2ccccc2c(=S)n2n1CC=CC2`, the GI50 was inactive: > 100 µM.
With `Cc1ccc([N+](=O)[O-])cc1NC(=O)C(=O)Cc1nc2ccc(C(=O)c3ccccc3)cc2nc1O` the GI50 was inactive: > 100 µM.
In the case of `CCOC(=O)[C-]([N+]#N)[Si](C)(C)C`, the GI50 is reported as inactive: 16 µM.
With `COc1ccc(CNc2nc3ccccc3nc2-c2cccs2)cc1OC` the GI50 was inactive: 76.2 µM.
With `CCc1n[nH]c(=O)n1N` the GI50 was inactive: > 100 µM.
With `CS(=O)(=O)OCCN1CCN(C(=O)c2cccc3c(Nc4ccc(S(N)(=O)=O)cc4)c4ccccc4nc23)CC1` the GI50 was inactive: > 100 µM.
For `CN(C)CCn1nc(N)c2nc3cc(C(F)(F)F)ccc3nc21`, the GI50 was inactive: > 100 µM.
For `C1CCN2CC3CCCN4CCCC(C2C1)C34` (stereo not drawn), the GI50 was inactive: > 100 µM.
With `N/C(=N\n1c(=S)[nH]c2ccccc2c1=O)Nn1c(=S)[nH]c2ccccc2c1=O` the GI50 was inactive: > 100 µM.
`COc1ccc2cc(CNCCCCCCNCc3ccc4cc(OC)ccc4c3)ccc2c1` was tested, and the GI50 was active: 0.774 µM.
`O=C(c1cccs1)N(C(=S)N1CCN(c2ccccn2)CC1)C1CCCCC1` was tested, and the GI50 was inactive: > 100 µM.
In the case of `CC(C)(C)c1cc(-c2cc(C(C)(C)C)n(-c3ccccc3)n2)nn1-c1ccccc1`, the GI50 is reported as inactive: > 100 µM.
`CN(C)CCOC1(Cc2ccc(F)cc2)CCC(C(C)(C)C)CC1` (stereo not drawn) was tested, and the GI50 was inactive: 8.79 µM and inactive: 4.41 µM.
With `CCCCOC(=O)Nc1ccc(S(=O)(=O)Nc2c(Cl)cccc2Cl)cc1` the GI50 was inactive: 47 µM.
With `Clc1cc(Cl)nc(Nc2ccc3c(c2)CCC3)n1` the GI50 was inactive: 25.9 µM.
In the case of `CC1=CCC(C)=Nc2nc3ccccc3n21`, the GI50 is reported as inactive: > 100 µM.
With `CC(OCc1ccccc1)C(NC(=O)C1CSSCC(NC(=O)C(Cc2ccccc2)NC(=O)OCc2ccccc2)C(=O)NC(Cc2ccccc2)C(=O)NC(Cc2cn(C=O)c3ccccc23)C(=O)NC(CCCCNC(=O)OCc2ccccc2)C(=O)NC(C(C)OCc2ccccc2)C(=O)N1)C(N)=O` (stereo not drawn) the GI50 was inactive: > 68.7 µM.
`Cc1ccc(-c2c(C#N)c(N)[nH]c(=S)c2C#N)cc1` was tested, and the GI50 was inactive: 51.5 µM.
With `CCNc1nc(N)c(C(=O)c2cccs2)s1` the GI50 was inactive: 17.6 µM.
For `COc1ccc(NS(=O)(=O)c2ccc(NC(NC(=O)CC(C)C)(C(F)(F)F)C(F)(F)F)cc2)nn1`, the GI50 was inactive: > 100 µM.
For `O=C(O)Cc1ccc2nc(COC(=O)c3ccccc3)sc2c1`, the GI50 was inactive: > 100 µM.
With `COC1CCC(OS(C)(=O)=O)C(C)O1` (stereo not drawn) the GI50 was inactive: > 10 µM.
With `C=Cc1nc2nnc(CCCCCCCCc3nnc4nc(C=C)[nH]n34)n2[nH]1` the GI50 was inactive: > 100 µM.
`O=C1OC(=O)C2CCCC3CCCC1C32` (stereo not drawn) was tested, and the GI50 was inactive: > 100 µM.
`CC(C)C(/N=C1\CC2CCC1(C(=O)Nc1ccccc1O)C2(C)C)c1ccccc1` (stereo not drawn) was tested, and the GI50 was inactive: > 10 µM.
For `O=C(NCCCC/N=c1/cccccc1NCCCCNC(=O)OCc1ccccc1)OCc1ccccc1`, the GI50 was inactive: 23.8 µM.
`O=[N+]([O-])c1cc2c(c3nonc13)OCCCCO2` was tested, and the GI50 was inactive: 16.4 µM.
For `NC(=O)c1[nH]nc(C2OC(CO)C(O)C2O)c1O` (stereo not drawn), the GI50 was inactive: 2.43 µM.
In the case of `Nc1ccc(C(=O)O)c2[nH]c3ccccc3c(=O)c12`, the GI50 is reported as inactive: > 100 µM.
With `COc1ccc(-n2/c(=N/C(=S)N(C)C)ss/c2=N\C(=S)N(C)C)cc1` the GI50 was inactive: > 100 µM.
With `COc1ccc(CCN2COc3ccc4ccc(=O)oc4c3C2)cc1OC` the GI50 was inactive: > 100 µM.
In the case of `OC12c3ccccc3C3CCC4(OCCO4)C3C1c1ccccc12` (stereo not drawn), the GI50 is reported as inactive: > 100 µM.
`O=C(OCCOC(=O)c1ccc2c(c1)C1(SCCS1)c1ccccc1-2)c1ccc2c(c1)C1(SCCS1)c1ccccc1-2` was tested, and the GI50 was inactive: > 100 µM.
`CCN(CC)c1c(C)c(C(=O)OC)nn1-c1ccccc1` was tested, and the GI50 was inactive: > 100 µM.
`OC[C@]1(n2nc3ccccc3n2)OC[C@@H]1c1ccccc1` was tested, and the GI50 was inactive: > 100 µM.
`COC(=O)C1(C#N)C(C)(C)N=C(c2ccccc2)C12CCCCC2` (stereo not drawn) was tested, and the GI50 was inactive: > 100 µM.
For `COc1c(C)c(C/C=C(\C)CC/C=C(\C)CC/C=C(\C)CCC=C(C)C)c(OC)c(OC)c1OC`, the GI50 was inactive: > 100 µM.
`OCCN(CCO)c1ccc2c(C(F)(F)F)cc(C(F)(F)F)nc2n1` was tested, and the GI50 was inactive: > 100 µM.
For `O=C(NCc1ccccc1)C1C(=O)C(=O)N(Cc2ccccc2)C1=O` (stereo not drawn), the GI50 was inactive: > 100 µM.
With `Fc1cccc(F)c1C1SCc2nc3cc(Cl)ccc3n21` (stereo not drawn) the GI50 was inactive: 22 µM.
`NC1=NS(=O)(=O)Nc2nc(-c3cccs3)[nH]c21` was tested, and the GI50 was inactive: > 100 µM.
For `Cc1cc2c(cn1)C(=O)OCC2`, the GI50 was inactive: > 100 µM.
`FC(F)(F)c1ccc2c(c1)N(CCCNCCN1CCOCC1)c1ccccc1S2` was tested, and the GI50 was inactive: 11.1 µM.
`O=C1C2C(C(=O)N1c1ccccc1)C1(c3ccccc3)CCC2(C(=O)c2ccccc2)O1` (stereo not drawn) was tested, and the GI50 was inactive: > 10 µM.
For `CC1C(NNc2ccccc2)Oc2cc3c(cc2C1c1ccccc1O)OCO3` (stereo not drawn), the GI50 was inactive: 4.3 µM.
In the case of `COC(=O)/C=C\C(C#N)(C#N)/N=C/c1ccccc1`, the GI50 is reported as inactive: 17.1 µM.
For `COC(=O)/C=c1/c2ccccc2n2nc3ccccc3c12`, the GI50 was inactive: 34.1 µM.
With `O=[N+]([O-])c1ccc2nc(/C(=N/Nc3ccccc3)C(O)c3ccc(Cl)cc3Cl)c(O)nc2c1` (stereo not drawn) the GI50 was inactive: > 100 µM.
`COc1cc2c(cc1OC)C(CC1=C(c3ccccc3)CN3CCc4cc(OC)c(OC)cc4C3C1)NCC2` (stereo not drawn) was tested, and the GI50 was inactive: 14.9 µM.
`CCN(CC)c1nnc(CCCCCCCCc2nnc(N(CC)CC)o2)o1` was tested, and the GI50 was inactive: > 100 µM.
`O=C(/C=C/c1ccccc1)NC1C=Nc2ccc(Cl)cc2NC1=O` (stereo not drawn) was tested, and the GI50 was inactive: 36.1 µM.
`CCC/C(Cl)=N/OC(=O)Nc1cccc(F)c1` was tested, and the GI50 was inactive: 17 µM.
`COc1cc([N+](=O)[O-])c(S(=O)(=O)[O-])cc1-[n+]1nc(C(=O)Nc2ccccc2)nn1-c1ccc([N+](=O)[O-])c(S(=O)(=O)O)c1` was tested, and the GI50 was inactive: 28 µM.
With `C=C(C)C(=O)O[C@H]1CC2(CO)O[C@@H]2CC/C(COC(C)=O)=C/C2OC(=O)C(=C)[C@@H]21` (stereo partly drawn) the GI50 was inactive: > 100 µM.
With `CC1CC2CC(=O)CC3(C1)C2CCCN3CCCO` (stereo not drawn) the GI50 was inactive: > 100 µM.
For `C=C1C2CC(OC(C)=O)C3(C)C(c4ccoc4)OC(=O)[C@@H](O)[C@]13OC1C[C@H](OC(C)=O)C(C)(C)[C@H](CC(=O)OC)[C@]12C` (stereo partly drawn), the GI50 was inactive: > 100 µM.
With `CCc1ccccc1-n1c2nc(=O)n(C)c(=O)c-2nc2ccccc21` the GI50 was inactive: 12 µM.
In the case of `N[C@@H]1CCN(c2c(F)cc3c(=O)c(C(=O)O)cn4c3c2Oc2cc3c(ccc5ccccc53)cc2-4)C1`, the GI50 is reported as active: 1.11 µM.
In the case of `O=C(O)c1c(Br)c(Br)c(Br)c(Br)c1C1c2ccc(O)cc2Oc2cc(O)ccc21`, the GI50 is reported as inactive: > 100 µM.
